Reference: PubChem BioAssay AID624296 (National Center for Advancing Translational Sciences (NCATS), 2012)
The whole screen tested about 350,000 compounds, of which about 9,900 (2.8%) were called active. Inconclusive results, whose numbers are uncertain, are shown with a selection of clear calls. Calls come from the whole dose curve; as a rule, active = well fitted activation curve with a large enough effect; inconclusive = small, poorly fitted or top-dose-only effect; inactive = no such curve, though single readings can be large or run the other way. No potency is given beside an inconclusive call; the fits are too rough.

Assay: A quantitative high throughput screen for small molecules that induce DNA re-replication in MCF 10a normal breast cells. Note: nearly all actives have a fitted effect of over 50% in size.
Details: MCF 10A DNA re-replication, Hoechst nuclear intensity, 48 h; series mostly up to 46.1 µM
Potency is the fitted concentration of half-maximal effect; tags give direction and shape of the fitted curve.

SMILES | Potency
CCOP(=O)(OCC)c1nc(/C=C/c2ccccc2)oc1NCc1ccc(OC)cc1 | inconclusive [activator, single point]
COc1cc(/C=C(/Sc2nnc(-c3ccc(F)cc3)o2)C(=O)O)ccc1OC(F)F | inconclusive [activator, single point]
Fc1cccc(F)c1/C=N/Nc1ccccn1 | inconclusive [activator, partial curve, poor fit]
CCOC(=O)c1cnc(-n2nc(C)cc2C)nc1NNc1nc(-c2ccccc2)cc(-c2ccccc2)n1 | inconclusive [activator, partial curve, poor fit]
c1ccc(CN2CCN(c3nc4ccccc4c4ccccc34)CC2)cc1 | inconclusive [activator, single point]
CCCNc1c(NC(=O)c2cccs2)c(=O)oc2ccccc12 | inactive
O=[N+]([O-])c1ccc(S(=O)(=O)c2cccc(C(F)(F)F)c2)nc1 | active: 5.17 µM
CC(=O)O[C@]1(C(C)=O)CC[C@H]2[C@@H]3C=CC4=CC(=O)C=C[C@]4(C)[C@H]3CC[C@@]21C | inconclusive [activator, single point]
CCc1cc(=O)oc2cc(OCc3ccc(C(=O)O)o3)ccc12 | inactive
O=C(NCCCN1CCC(Cc2ccccc2)CC1)C1CCN(S(=O)(=O)N2CCC3(CC2)OCCO3)CC1 | inactive
CCN(CCCCN1C(=O)c2ccccc2C1=O)c1ccc2c(c1)C(=O)N(C)C2=O | inconclusive [activator, full curve, poor fit]
CC1CN(CC(O)COc2ccc(C(=O)c3ccccc3)cc2)CC(C)O1 (stereo unspecified) | inconclusive [activator, partial curve, poor fit]
O=C(Nc1ccc(Cl)cc1)Nc1nnc(-c2ccncc2)s1 | inconclusive [activator, partial curve]
CCn1c(SCC(=O)Nc2cccc(NC(=O)c3cccs3)c2)nnc1-c1ccncc1 | inactive
O=C(N/N=C\c1cn(-c2ccccc2)nc1-c1ccccc1)c1ccc(Br)o1 | inconclusive [activator, partial curve]
COC(=O)c1cc(NC(=O)c2ccc([N+](=O)[O-])cc2)c(=O)oc1C | inactive
CCSc1nc2sc3c(c2c(=O)[nH]1)CCCC3 | inconclusive [activator, partial curve, poor fit]
COc1ccc(Nc2cc(C(=O)NC3CCCC3)c3ccccc3n2)c(OC)c1 | inactive
Cc1c(C(=O)NCC2COc3ccccc3O2)oc2ccc(S(=O)(=O)N3CC(C)CC(C)C3)cc12 (stereo unspecified) | inactive
CCOC(=O)c1cc(C)sc1NC(=O)CSC1=NCCS1 | active: 20.6 µM
COC(=O)c1ccc(CC(=O)c2nc3ccccc3s2)cc1 | inactive
